The results in this text go back to PMC3846882.

By UniProt entry, the sequences of proteins in these tests, tags left out.
UniProt Q15046: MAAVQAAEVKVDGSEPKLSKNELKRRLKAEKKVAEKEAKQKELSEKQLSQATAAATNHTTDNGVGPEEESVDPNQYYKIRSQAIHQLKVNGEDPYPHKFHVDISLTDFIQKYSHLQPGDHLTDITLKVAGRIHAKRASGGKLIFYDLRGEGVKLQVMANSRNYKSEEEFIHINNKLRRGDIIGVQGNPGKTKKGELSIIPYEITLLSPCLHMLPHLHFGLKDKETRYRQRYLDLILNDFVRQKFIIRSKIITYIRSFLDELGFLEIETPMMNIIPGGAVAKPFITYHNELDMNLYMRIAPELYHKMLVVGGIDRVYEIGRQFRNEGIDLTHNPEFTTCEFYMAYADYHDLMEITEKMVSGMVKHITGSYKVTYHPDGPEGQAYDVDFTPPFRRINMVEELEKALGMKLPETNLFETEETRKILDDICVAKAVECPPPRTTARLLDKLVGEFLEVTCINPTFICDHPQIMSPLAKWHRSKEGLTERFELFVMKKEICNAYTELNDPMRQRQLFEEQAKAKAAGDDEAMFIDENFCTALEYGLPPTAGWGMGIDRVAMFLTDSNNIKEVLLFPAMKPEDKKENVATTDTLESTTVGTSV
UniProt P07814: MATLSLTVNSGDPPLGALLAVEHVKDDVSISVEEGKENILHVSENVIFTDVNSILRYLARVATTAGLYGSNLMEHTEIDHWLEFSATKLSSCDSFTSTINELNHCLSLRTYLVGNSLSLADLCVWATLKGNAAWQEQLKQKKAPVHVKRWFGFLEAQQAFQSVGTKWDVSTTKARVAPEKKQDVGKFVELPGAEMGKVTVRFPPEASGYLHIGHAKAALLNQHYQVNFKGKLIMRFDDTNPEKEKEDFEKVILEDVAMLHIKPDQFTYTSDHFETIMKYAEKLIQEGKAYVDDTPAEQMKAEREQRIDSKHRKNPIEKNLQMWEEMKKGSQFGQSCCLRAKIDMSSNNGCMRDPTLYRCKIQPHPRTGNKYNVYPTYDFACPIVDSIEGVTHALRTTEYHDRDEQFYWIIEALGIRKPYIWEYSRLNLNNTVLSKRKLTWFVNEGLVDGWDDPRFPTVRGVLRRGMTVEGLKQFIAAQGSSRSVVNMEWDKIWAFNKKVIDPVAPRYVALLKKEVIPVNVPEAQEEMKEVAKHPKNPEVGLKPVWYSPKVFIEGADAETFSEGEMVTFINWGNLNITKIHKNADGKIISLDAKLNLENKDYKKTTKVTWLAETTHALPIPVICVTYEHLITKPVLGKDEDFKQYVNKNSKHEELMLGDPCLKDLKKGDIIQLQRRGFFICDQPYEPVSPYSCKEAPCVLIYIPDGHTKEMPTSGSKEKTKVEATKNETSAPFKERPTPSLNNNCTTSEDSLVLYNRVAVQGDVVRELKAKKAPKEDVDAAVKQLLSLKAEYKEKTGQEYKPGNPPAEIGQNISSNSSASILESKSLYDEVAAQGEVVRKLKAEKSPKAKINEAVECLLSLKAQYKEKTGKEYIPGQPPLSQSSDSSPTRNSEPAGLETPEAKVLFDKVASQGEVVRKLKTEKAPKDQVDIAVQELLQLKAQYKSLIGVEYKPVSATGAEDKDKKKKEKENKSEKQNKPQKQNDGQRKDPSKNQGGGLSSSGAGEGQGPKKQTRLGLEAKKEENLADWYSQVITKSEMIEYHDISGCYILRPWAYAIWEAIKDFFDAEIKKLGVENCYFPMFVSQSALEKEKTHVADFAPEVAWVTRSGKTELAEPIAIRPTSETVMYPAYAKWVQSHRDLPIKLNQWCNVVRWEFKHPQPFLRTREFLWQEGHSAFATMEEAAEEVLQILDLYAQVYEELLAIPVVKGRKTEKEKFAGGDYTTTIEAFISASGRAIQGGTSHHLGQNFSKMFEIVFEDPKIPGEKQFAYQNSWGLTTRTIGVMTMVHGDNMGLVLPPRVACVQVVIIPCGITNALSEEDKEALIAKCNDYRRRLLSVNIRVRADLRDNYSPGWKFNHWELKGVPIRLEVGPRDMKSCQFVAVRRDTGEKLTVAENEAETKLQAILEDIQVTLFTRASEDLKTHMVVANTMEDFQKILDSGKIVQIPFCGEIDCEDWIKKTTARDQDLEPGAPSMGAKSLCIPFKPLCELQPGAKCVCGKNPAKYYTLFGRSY

These are yes or no findings as the source states them, for the method shown. In cells and extracts the contact can be indirect. Some results given as binding are weak or reduced against the parent protein; the word gives no strength. For some assays here: Where a sequence is shown, tags or fusion partners need not be part of it.

The target in one test is T1, S/FLAG/SBP tagged AIMP1 (UniProt Q12904).
T1 sequence: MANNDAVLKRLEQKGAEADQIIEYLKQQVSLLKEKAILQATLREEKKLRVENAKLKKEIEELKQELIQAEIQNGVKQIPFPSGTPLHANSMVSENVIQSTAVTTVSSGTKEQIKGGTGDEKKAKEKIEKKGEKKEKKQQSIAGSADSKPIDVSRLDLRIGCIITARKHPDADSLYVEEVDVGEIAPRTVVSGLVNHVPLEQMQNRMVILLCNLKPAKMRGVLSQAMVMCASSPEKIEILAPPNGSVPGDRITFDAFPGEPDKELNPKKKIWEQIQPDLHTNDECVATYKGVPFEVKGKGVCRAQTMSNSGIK
Briefly: pull-down; streptavidin pull down (SA pull down) of S/FLAG/SBP-tagged bait from lysates of transfected HEK 293T and HCT-8 cells in NETN buffer, eluate immunoblotted for endogenous proteins; mock vector as control. (In western blotting, separated proteins are transferred to a membrane and probed.)

A further test addresses S/FLAG/SBP tagged KARS (UniProt Q15046). Described as above.
The target of a further test is T2, S/FLAG/SBP tagged AIMP2 (UniProt Q13155).
T2 sequence: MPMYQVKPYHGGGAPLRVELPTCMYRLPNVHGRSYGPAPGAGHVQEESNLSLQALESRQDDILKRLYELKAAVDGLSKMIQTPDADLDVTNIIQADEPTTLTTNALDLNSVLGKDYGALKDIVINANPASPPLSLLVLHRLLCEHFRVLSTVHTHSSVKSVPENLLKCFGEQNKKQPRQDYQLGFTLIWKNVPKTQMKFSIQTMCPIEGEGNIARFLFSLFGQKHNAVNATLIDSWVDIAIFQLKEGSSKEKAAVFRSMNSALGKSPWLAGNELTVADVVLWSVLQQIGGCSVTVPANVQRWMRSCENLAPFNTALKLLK
The test is described as above.

In test [1] the target is T3, threonyl-tRNA synthetase (human (endogenous in HEK 293T and HCT-8)) (UniProt P26639).
T3 sequence: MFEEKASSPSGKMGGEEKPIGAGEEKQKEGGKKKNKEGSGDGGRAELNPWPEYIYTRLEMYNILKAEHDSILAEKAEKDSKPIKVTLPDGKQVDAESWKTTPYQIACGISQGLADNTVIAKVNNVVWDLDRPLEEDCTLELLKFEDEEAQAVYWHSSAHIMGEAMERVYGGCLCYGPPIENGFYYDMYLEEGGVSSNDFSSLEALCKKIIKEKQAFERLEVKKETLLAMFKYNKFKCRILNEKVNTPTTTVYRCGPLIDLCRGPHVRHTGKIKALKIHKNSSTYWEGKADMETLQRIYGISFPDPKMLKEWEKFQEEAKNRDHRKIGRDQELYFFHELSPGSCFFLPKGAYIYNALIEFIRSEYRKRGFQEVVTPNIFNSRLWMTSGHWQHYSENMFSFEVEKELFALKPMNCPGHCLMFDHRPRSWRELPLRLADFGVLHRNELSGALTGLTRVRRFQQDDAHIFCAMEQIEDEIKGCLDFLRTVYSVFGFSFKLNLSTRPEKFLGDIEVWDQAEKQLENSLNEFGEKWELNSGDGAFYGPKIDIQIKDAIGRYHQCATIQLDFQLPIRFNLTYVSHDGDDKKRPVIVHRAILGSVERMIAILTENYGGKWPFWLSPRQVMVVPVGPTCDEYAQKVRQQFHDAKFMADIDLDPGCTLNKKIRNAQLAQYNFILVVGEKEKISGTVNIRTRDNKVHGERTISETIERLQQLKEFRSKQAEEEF
Briefly: co-IP; endogenous proteins; 500 μg lysate of HEK 293T and HCT-8 cells in NETN buffer, primary antibody 2 h at 4 °C, protein A/G PLUS-Agarose 12 h, immunoblot; IgG as control.

The target in test [2] is T4, Isoform 1 of Probable threonyl-tRNA synthetase 2 (human (endogenous in HEK 293T and HCT-8)) (UniProt A2RTX5).
T4 sequence: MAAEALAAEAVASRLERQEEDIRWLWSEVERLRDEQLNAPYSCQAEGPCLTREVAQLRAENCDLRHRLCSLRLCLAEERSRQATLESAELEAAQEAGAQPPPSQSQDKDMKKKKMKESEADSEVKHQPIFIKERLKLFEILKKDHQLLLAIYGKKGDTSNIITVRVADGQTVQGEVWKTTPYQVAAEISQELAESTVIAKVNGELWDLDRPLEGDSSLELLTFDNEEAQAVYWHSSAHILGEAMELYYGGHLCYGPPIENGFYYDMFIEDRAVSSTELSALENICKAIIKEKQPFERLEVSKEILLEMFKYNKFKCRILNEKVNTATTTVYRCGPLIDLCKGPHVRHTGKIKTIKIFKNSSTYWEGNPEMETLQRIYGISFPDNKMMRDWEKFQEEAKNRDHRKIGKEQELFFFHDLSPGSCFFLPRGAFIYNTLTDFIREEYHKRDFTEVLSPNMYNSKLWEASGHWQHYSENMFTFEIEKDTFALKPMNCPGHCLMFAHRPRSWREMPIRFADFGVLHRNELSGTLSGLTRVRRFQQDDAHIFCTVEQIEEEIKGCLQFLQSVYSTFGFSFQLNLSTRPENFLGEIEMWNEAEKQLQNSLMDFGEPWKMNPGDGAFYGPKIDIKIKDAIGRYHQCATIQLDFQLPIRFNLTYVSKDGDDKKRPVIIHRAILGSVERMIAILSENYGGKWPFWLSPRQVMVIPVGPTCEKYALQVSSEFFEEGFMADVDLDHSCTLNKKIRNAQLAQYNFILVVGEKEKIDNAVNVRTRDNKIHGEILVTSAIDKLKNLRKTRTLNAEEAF
The description is as above.

As to “Bifunctional aminoacyl-tRNA synthetase (glutamyl-prolyl-tRNA synthetase) (from UniProt P07814 1-1512) (enzyme)”, the binding entry in the test with S/FLAG/SBP tagged AIMP1 was “binds”; with S/FLAG/SBP tagged KARS it was “binds”; in the test with S/FLAG/SBP tagged AIMP2, “binds”; in test [1] it was “binds weakly”; in test [2], “binds”.

Consider “ISGylated TARS (from UniProt P26639 1-723; P05161 1-157)”, for which the binding result with S/FLAG/SBP tagged AIMP1, in the test with S/FLAG/SBP tagged KARS and with S/FLAG/SBP tagged AIMP2 was “no binding” in each case.
